Test results published in PubChem BioAssay AID1347120 (National Center for Advancing Translational Sciences (NCATS), 2019).
About 930 (0.24%) of roughly 390,000 compounds were called active. Inconclusive means that the source gave no clear call. Such entries were picked first, then a sample of the others. Calls follow the shape of the dose curve; as a rule, active = well fitted activation curve with a large enough effect; inconclusive = small, poorly fitted or top-dose-only effect; inactive = no such curve, though single readings can be large or run the other way. Where the call is inconclusive, the potency comes from a doubtful curve fit.

test: qHTS for Suppressors of FUS Proteinopathy: Primary screen using FUS-linked yeast assay; also: nearly all actives have a fitted effect of over 55% in size;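 as to growth rescue (activation): plate controls were DMSO vehicle for no effect and reference control for full effect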; conditions: S. cerevisiae FUS-expressing, OD600, 24 h; Potency: growth rescue; growth rescue (activation): at 76.6 µM (top of the series)
Summary of the method: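 Steps: raffinose overnight preculture; dilution to OD 0.005 in 2% galactose minimal medium; compound addition (concentration series); 24hr at 30C, 99% humidity; absorbance read at 600 nm.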
Potency is read from the fitted curve at half-maximal effect; tags tell the direction and shape of the fitted curve.

Row | Structure (SMILES) | Potency | growth rescue (activation)
1 | C[C@@]12C(=O)Nc3ccc(Cl)cc3C(=O)N1[C@H]1c3ccccc3OC[C@@H]1[C@@H]2c1ccccc1 | active: 28.2 µM | 
2 | CCOc1ccccc1CNC(=O)c1[nH]c2ccccc2c1Sc1ccccc1 |  | inactive: -4.45%
3 | COC(=O)CCCC1=CC2=CC(=O)C(C)(OC(=O)CCc3ccccc3)C(=O)C2=CO1 (stereo unspecified) | inconclusive: 35.5 µM [activator, single point] | 
4 | O=C(NCCc1ccccc1)OCc1cn(Cc2ccccc2Cl)nn1 |  | inactive: 11%
5 | CC(=O)N1CC[n+]2c(-c3ccc(Cl)cc3)csc21 | inconclusive: 50.1 µM [activator, single point] | 
6 | Cc1ccc2c(c1)N(C(=O)N1CCC(C(=O)NCCC3=CCCCC3)CC1)CC(C)O2 (stereo unspecified) |  | inactive: 4.97%
7 | COc1ccc(C#Cc2ccc3c(c2)O[C@H](CN(C)C(C)=O)[C@H](C)CN([C@@H](C)CO)S3(=O)=O)cc1 | inconclusive: 25.1 µM [activator, single point] | 
8 | CCNC(=O)c1cnc2sc(N3CCC(C)CC3)nn2c1=O |  | inactive: 7.88%
9 | COc1ccc(C(=O)Nc2ccc(S(=O)(=O)N3CCCCC3)cc2)cc1 | inconclusive: 12.6 µM [activator, partial curve] | 
10 | O=C(Nc1cccc(Cl)c1)c1ccc2nc(Cc3ccccc3)oc2c1 |  | inactive: 6.21%
11 | Cc1ccccc1Nc1ncnc2c1c(-c1ccccc1)cn2-c1ccc(F)cc1 |  | inactive: 27.1%
12 | COc1ccc2[nH]c3c(c2c1)CCN1C(=O)N([C@@H](C)C(=O)NCc2c(F)cccc2Cl)C(=O)[C@]31C | inconclusive: 35.5 µM [activator, single point] | 
13 | Cn1ncc2c(NCc3ccccc3)nc(NCCCO)nc21 |  | inactive: 2.17%
14 | COc1cc(OC)c(NC(=O)C2=C(C)C(=O)OC23CCCCC3)cc1Cl |  | inactive: -4.32%
15 | CC1(CCc2ccc3c(c2)OCO3)NC(=O)c2ccccc2N1 (stereo unspecified) |  | inactive: 5.81%
16 | CCCC(=O)N1CCC(NS(=O)(=O)c2ccc3c(c2)CCN3C(C)=O)CC1 |  | inactive: 1.96%
17 | C/C(CC1CC(COCC(C)C)OC1=O)=N\Nc1nc(-c2ccccc2)cs1 (stereo unspecified) | inconclusive: 35.5 µM [activator, partial curve] | 
18 | O=C(N/N=C/c1cnc(N2CCCCC2)s1)c1ccc(Cl)cc1 |  | inactive: 6.75%
19 | CCCCc1ccc(C(=O)Nc2ccc3nc(N(CC)CC)cc(C)c3c2)cc1 | inconclusive: 31.6 µM [activator, single point] | 
20 | O=c1cc(-c2ccccc2)n2c(SCc3ccc([N+](=O)[O-])cc3)nnc2[nH]1 |  | inactive: -16.4%
21 | CCOC(=O)C1CCCN(C(=O)c2cccc(S(=O)(=O)N(Cc3ccccc3)c3ccccc3OC)c2)C1 (stereo unspecified) | inconclusive: 31.6 µM [activator, partial curve, poor fit] | 
22 | CC(=O)Nc1cc(-c2ccc(C(=O)NC3CC3)cc2)cn2c(-c3cccc(C(C)=O)c3)cnc12 | inconclusive: 28.2 µM [activator, single point] | 

Row | Structure (SMILES) | Potency | growth rescue (activation)
23 | CSc1nc(N2CCOCC2)c2c3c(sc2n1)CCCC3 | inconclusive: 17.8 µM [activator, partial curve, poor fit] | 
24 | COc1ccc(-c2nc(CCNC(=O)c3cccs3)cs2)cc1OC |  | inactive: 3.31%
25 | COc1ccc(C(=O)Nc2cccc(C(C)=O)c2)cc1OC | inconclusive: 22.4 µM [activator, partial curve, poor fit] | 
26 | COCCCNC(=O)Nc1cc(C(=O)NCc2ccc(OC)cc2)ccc1N1CCCC1 | inconclusive: 50.1 µM [activator, single point] | 
27 | CC(=O)N1Cc2cc(C(=O)NCc3cccc(F)c3)nc(-c3cccc(C4=CCCCC4)c3)c2[C@H]1CCO | inconclusive: 50.1 µM [activator, single point] | 
28 | Cc1ccc(CN(C(=O)COc2ccc(C(C)(C)C)cc2)C2CCS(=O)(=O)C2)o1 (stereo unspecified) | inconclusive: 25.1 µM [activator, single point] | 
29 | COc1ccc(C(C(=O)NC(C)(C)C)n2c(COc3ccc(C)cc3)nc3ccccc32)cc1 (stereo unspecified) | inconclusive: 14.1 µM [activator, partial curve] | 
30 | CC1(Cc2ccccc2C#N)C(=O)Nc2ccc(-c3ccccc3)cc21 (stereo unspecified) | inconclusive: 25.1 µM [activator, single point] | 
31 | CC(=O)Nc1ccc(C2CC(c3ccc(Cl)cc3)=NN2c2ccccc2)cc1 (stereo unspecified) |  | inactive: 7.36%
32 | C=CCn1c(=O)c(CCC(=O)Nc2ccc(N3CCOCC3)cc2)nc2cc(C(F)(F)F)ccc21 | inconclusive: 50.1 µM [activator, single point] | 
33 | Cc1ccc(CCNC(=O)c2c(C)oc3ncnc(N4CCOCC4)c23)cc1 |  | inactive: 16.6%
34 | O=S(=O)(Nc1cccc(-c2ccc(N3CCCCCC3)nn2)c1)c1ccccc1Cl | inconclusive: 28.2 µM [activator, partial curve, poor fit] | 
35 | CCOc1cc(-c2c(C#N)c(=O)[nH]c3c2c(C)nn3-c2ccc(F)cc2)ccc1O | inconclusive: 5.62 µM [activator, partial curve, poor fit] | 
36 | Cc1ccc(NCc2cccn2-c2nnc(N3CCC(C(=O)NCCc4ccccc4)CC3)s2)cc1 | inconclusive: 31.6 µM [activator, partial curve, poor fit] | 
37 | O=C(c1ccc(NS(=O)(=O)c2cccs2)cc1)N1CCN(c2ccccc2Cl)CC1 | inconclusive: 22.4 µM [activator, partial curve, poor fit] | 
38 | COc1ccccc1CCC(=O)OCC(=O)N1CCN(S(=O)(=O)c2ccc(C)cc2C)CC1 | inconclusive: 14.1 µM [activator, partial curve] | 
39 | COc1ccc(CN(C(=O)c2oc3cc(C)ccc3c2C)C2CCS(=O)(=O)C2)cc1OC (stereo unspecified) | inconclusive: 28.2 µM [activator, single point] | 
40 | Cc1ccc(S(=O)(=O)NCC(=O)OCC(=O)NC(=O)c2cccn2C)cc1 | inconclusive: 25.1 µM [activator, partial curve, poor fit] | 
41 | CC(C)CC(=O)NC(=S)Nc1ccc(N2CCN(C(=O)c3cccs3)CC2)cc1 |  | inactive: 1.78%
42 | Clc1ccccc1OCc1nn2c(-c3ccncc3)nnc2s1 |  | inactive: -2.77%
43 | Cc1ccn2c(NC(=O)C(C)(C)Oc3ccc(Cl)cc3)c(-c3cccs3)nc2c1 | inconclusive: 28.2 µM [activator, partial curve] | 
44 | COc1cccc(-c2nn(C)c3sc(C(=O)NCc4ccc(C)cc4)cc23)c1 | inconclusive: 50.1 µM [activator, single point] | 

Row | Structure (SMILES) | Potency | growth rescue (activation)
45 | CCCC12CN3CC(C)(CN(C1)C31CCCCC1)C2=O |  | inactive: -1.11%
46 | CCCOC(=O)NC(CC)COC(=O)Nc1cccc(C)c1C (stereo unspecified) |  | inactive: -1.57%
47 | CCOC(=O)[C@H]1[C@H]2COc3ccc(Br)cc3[C@@H]2N2C(=O)CN(Cc3ccc(OC)cc3)C(=O)[C@@]12C | inconclusive: 31.6 µM [activator, single point] | 
48 | Cc1ccc(C2=NN=C(NC(=O)CSc3nnc4c5ccccc5n(C)c4n3)SC2)cc1 | inconclusive: 4.47 µM [activator, full curve] | 
49 | COc1cccc(NC(=O)c2ccco2)c1 |  | inactive: -2.54%
50 | CCC1CN(C(=O)N2CCC(C(=O)NCCCc3ccccc3)CC2)c2ccccc2O1 (stereo unspecified) |  | inactive: 37.5%
51 | CC(C)C1C(=O)N(Cc2cn(Cc3ccco3)nn2)CCS(=O)(=O)N1Cc1ccc(-c2cccc(N(C)C)c2)cc1 (stereo unspecified) | inconclusive: 28.2 µM [activator, single point] | 
52 | Cc1c(NS(=O)(=O)c2ccc3nc(COc4ccccc4Cl)[nH]c3c2)c(=O)n(-c2ccccc2)n1C |  | inactive: 32.6%
53 | CN(CCC#N)C(=O)COC(=O)c1c2c(nc3ccccc13)/C(=C\c1ccco1)CC2 | inconclusive: 35.5 µM [activator, single point] | 
54 | COc1ccc(-n2c(Cc3cccn3C)nnc2SCC(=O)Nc2cccc(C)c2C)cc1 | inconclusive: 22.4 µM [activator, partial curve] | 
55 | O=C(O)CC(SCC(=O)Nc1ccc(Cl)c(S(=O)(=O)N2CCOCC2)c1)C(=O)O (stereo unspecified) |  | inactive: -4%
56 | Cc1ccc(N2CCN(C(C(=O)Nc3c(C)cccc3C)c3cc4ccccc4o3)CC2)cc1 (stereo unspecified) | inconclusive: 3.98 µM [activator, full curve] | 
57 | COc1cccc(CN(C)C(=O)c2ccc3nccnc3c2)c1 | inconclusive: 44.7 µM [activator, single point] | 
58 | CC(C)c1nc(N(C)S(C)(=O)=O)nc(-c2ccc(F)cc2)c1/C=C/[C@H](O)C[C@@H](O)CC(=O)O |  | inactive: 9.57%
59 | CCCCN(CCCC)S(=O)(=O)c1ccc(C(=O)Nc2sc3c(c2C(N)=O)CCN(CC)C3)cc1 | inconclusive: 44.7 µM [activator, single point] | 
60 | COc1cccc(C(=O)Nc2nc(-c3ccccc3)c(-c3ccccc3)o2)c1 |  | inactive: 34.8%
61 | CCOc1ccc(OCCNC(=O)c2cc(C3CC3)nc3c2cnn3C(C)C)cc1 | inconclusive: 20 µM [activator, partial curve] | 
62 | Cc1nn(CC(=O)c2cccc(Cl)c2)c(C)c1[N+](=O)[O-] | inconclusive: 44.7 µM [activator, single point] | 
63 | CSc1ccc(/C=N/n2c(Cc3ccc(Br)cc3)n[nH]c2=S)cc1 | inconclusive: 28.2 µM [activator, partial curve, poor fit] | 
64 | COc1cccc(CC(=O)NCC2COc3ccccc3O2)c1OC (stereo unspecified) | inconclusive: 11.2 µM [activator, partial curve, poor fit] | 
65 | COc1ccc(-c2nc(Cn3c(SCc4cccc(F)c4)nc4cccnc43)c(C)o2)cc1 | inconclusive: 31.6 µM [activator, single point] | 
66 | O=C(N/N=C/c1ccccc1C(=O)O)c1cccc(S(=O)(=O)N2CCCCC2)c1 |  | inactive: -3.46%
